First the molecules themselves.
B1: huNRG1(S177-F229)(NRGE1C)::(G4S)2::G4::huFcSEFL2 (Pb): Fc fusion of NRG1 variant SEQ ID NO:117 (protein)
chain: SHLVKCGEKHKSFCVNGGECFMIEGPSNPSRYLCKCPNEFTGDRCQEDFMASFGGGGSGGGGSGGGG[letters of human IgG1 Fc with R292C N297G V302C (EU numbers) not shown]
modifications: huNRG1(S177-F229) (NRGE1C)::(G4S)2::G4::huFcSEFL2 (Pb)
B2: huNRG1(S177-F229)(NRGE1C)(G4E)::G4S::G4::huFcSEFL2 (Pb): Fc fusion of NRG1 variant SEQ ID NO:117 (protein)
chain: B1 chain with S58E
modifications: huNRG1(S177-F229)(NRGE1C) (G4E)::G4S::G4::huFcSEFL2 (Pb)
B3: huNRG1(S177-Q237)()200E_KDF)::GG::huFcSEFL2 (Pb): Fc fusion of NRG1 variant SEQ ID NO:173 (protein)
chain: SHLVKCAEKEKTFCVNGGECFMVEDLSNPSRYLCKCPNEFTGDRCQKDFMASFYKAEELYQGG[letters of human IgG1 Fc with R292C N297G V302C (EU numbers) not shown]
modifications: huNRG1(S177-Q237)(_200E_KDF)::GG::huFcSEFL2 (Pb)
B4: huNRG1(S177-Q237)(_FVIEDPSI)::GG::huFcSEFL2 (Pb): Fc fusion of NRG1 variant SEQ ID NO:174 (protein)
chain: B3 chain with M22V, V23I, L26P, N28I, K47N, D48Y, F49V
modifications: huNRG1(S177-Q237)(_FVIEDPSI)::GG::huFcSEFL2 (Pb)
B5: huNRG1(S177-Q237)(v80)::GG::huFcSEFL2 (Pb): Fc fusion of NRG1 variant SEQ ID NO:175 (protein)
chain: B3 chain with K9S, E10H, T12S, M22V, V23I, D25G, L26S, N28I, F49V
modifications: huNRG1(S177-Q237)(v80)::GG::huFcSEFL2 (Pb)
B6: huNRG1(S177-Q237)(v80.3)::GG::huFcSEFL2 (Pb): Fc fusion of NRG1 variant SEQ ID NO:176 (protein)
chain: B3 chain with K9R, E10H, T12S, M22V, V23I, D25G, L26S, N28I, Q46E, F49V
modifications: huNRG1(S177-Q237)(v80.3)::GG::huFcSEFL2 (Pb)

Positions count from the first letter of the chain named. In names and notes the source's numbering stands.

In the first assay the target is T1, ErbB4 (Rattus norvegicus, UniProt Q62956).
T1 construct: forming the ErbB2/ErbB4 complex in cardiomyocytes and the ErbB2/ErbB3 complex in Schwann cells; endogenous in cells; host or cells: primary neonatal rat cardiomyocytes (Sprague Dawley pups, 0 to 4 days old)
T1 sequence (Q62956 26-1308): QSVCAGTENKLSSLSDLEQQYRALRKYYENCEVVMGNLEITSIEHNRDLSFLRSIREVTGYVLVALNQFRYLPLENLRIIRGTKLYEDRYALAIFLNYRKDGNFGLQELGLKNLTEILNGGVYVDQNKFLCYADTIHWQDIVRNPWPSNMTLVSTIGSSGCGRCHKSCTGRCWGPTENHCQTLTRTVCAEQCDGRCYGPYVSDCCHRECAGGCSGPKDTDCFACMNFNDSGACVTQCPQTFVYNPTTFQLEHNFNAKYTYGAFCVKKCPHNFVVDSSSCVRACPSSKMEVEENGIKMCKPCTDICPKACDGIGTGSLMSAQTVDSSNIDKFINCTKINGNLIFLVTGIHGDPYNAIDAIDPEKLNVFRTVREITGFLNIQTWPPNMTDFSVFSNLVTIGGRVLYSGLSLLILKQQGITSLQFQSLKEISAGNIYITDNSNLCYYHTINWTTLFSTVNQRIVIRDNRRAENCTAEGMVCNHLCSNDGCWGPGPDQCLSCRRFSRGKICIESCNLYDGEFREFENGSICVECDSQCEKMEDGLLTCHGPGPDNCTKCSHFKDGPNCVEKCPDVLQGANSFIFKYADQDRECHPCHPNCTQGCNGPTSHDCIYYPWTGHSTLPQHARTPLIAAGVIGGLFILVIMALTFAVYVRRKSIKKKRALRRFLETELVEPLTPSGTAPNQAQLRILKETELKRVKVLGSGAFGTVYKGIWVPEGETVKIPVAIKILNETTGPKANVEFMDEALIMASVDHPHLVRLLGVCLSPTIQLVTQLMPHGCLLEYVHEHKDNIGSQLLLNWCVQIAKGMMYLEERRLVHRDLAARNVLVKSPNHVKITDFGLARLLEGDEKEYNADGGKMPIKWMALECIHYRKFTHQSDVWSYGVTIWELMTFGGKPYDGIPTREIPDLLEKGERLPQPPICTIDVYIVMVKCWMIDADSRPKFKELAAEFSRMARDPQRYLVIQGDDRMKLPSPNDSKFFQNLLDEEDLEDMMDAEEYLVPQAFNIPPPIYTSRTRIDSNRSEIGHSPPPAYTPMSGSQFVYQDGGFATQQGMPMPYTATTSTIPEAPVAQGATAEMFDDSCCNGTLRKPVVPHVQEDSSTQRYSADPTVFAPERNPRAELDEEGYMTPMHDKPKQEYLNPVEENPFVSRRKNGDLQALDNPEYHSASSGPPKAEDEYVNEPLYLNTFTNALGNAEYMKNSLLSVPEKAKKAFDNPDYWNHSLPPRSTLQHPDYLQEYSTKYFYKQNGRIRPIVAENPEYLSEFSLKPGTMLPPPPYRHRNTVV
T1 sequence (P06494 23-1257 partner): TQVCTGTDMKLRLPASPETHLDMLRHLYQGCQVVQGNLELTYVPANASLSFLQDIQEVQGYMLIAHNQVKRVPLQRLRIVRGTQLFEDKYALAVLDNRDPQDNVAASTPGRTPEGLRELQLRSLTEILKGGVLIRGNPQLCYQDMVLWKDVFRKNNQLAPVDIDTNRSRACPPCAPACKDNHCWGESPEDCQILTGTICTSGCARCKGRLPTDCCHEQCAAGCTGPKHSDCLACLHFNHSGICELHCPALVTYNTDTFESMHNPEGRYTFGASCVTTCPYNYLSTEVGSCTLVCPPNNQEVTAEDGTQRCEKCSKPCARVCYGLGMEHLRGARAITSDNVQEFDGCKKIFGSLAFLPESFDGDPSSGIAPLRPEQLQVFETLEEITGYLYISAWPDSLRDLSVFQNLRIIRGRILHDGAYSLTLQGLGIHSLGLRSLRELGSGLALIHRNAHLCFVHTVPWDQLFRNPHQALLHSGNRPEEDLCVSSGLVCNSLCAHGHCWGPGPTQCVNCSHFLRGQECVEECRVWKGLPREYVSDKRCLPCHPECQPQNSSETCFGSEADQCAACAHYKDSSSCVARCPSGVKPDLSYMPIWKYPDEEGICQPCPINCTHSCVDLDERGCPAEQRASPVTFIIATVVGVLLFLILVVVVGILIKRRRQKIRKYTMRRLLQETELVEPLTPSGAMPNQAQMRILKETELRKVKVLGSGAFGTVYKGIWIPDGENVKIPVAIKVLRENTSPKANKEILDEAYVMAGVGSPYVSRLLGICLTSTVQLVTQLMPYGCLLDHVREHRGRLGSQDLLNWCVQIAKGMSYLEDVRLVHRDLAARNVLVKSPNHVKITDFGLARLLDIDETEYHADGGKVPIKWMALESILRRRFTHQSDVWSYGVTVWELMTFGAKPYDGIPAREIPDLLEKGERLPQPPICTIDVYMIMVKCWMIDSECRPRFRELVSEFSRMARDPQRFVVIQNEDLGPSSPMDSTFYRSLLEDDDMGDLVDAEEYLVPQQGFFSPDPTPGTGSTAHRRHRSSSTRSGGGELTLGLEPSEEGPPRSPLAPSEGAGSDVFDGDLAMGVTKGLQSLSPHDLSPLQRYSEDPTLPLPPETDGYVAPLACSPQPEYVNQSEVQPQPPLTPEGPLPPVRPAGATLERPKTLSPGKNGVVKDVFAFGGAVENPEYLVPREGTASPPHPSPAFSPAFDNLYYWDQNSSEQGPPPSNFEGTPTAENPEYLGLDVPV
In words: In vitro phosphorylation of Akt in neonatal rat cardiomyocytes. Format: cell-based. The note with it: Akt (Serine 473) phosphorylation, neonatal rat cardiomyocytes, 15 minutes treatment; read-out: Cardiomyocyte (CM) (ErbB4) Avg EC50. The method, then: (§1) In Vitro Phosphorylation of Akt in Neonatal Rat Cardiomyocytes and Rat Schwann Cells by Neuregulin Variants
(§2) Specificity of neuregulin variants towards cardiomyocytes (ErbB4) versus Schwann cells (ErbB3) was tested by measuring Akt activity generated by formation of the ErbB2/ErbB4 and ErbB2/ErbB3 complexes. Upon activation by neuregulin, the ErbB4 and ErbB3 receptors dimerize preferentially with the ErbB2 co-receptor, forming the ErbB2/ErbB4 complex in cardiomyocytes and the ErbB2/ErbB3 complex in Schwann cells, both of which signal through the Akt pathway. Neonatal rat cardiomyocytes were isolated from hearts of Sprague Dawley rat pups at 0 to 4 days old according to manufacturer's protocol using the Neomyt kit and plated on Surecoat plates in NS media containing serum (all from Cellultron Life Technologies, Baltimore, MD). Rat Schwann cells were plated in Poly-D-Lysine coated plates with Dulbecco's modified Eagle's media (DMEM) supplemented with fetal bovine serum (Thermo Fisher) and forskolin (Millipore Sigma).
(§3) After a 24-hour incubation in a humidified incubator maintained at 37° C. and 5% CO2, cardiomyocytes and Schwann cells were washed with serum free media and incubated an additional 16 hours in DMEM supplemented with bovine serum albumin (Sigma). Both cell lines were then treated with titrations of the neuregulin variant molecules for 15 minutes, upon which cells were lysed in lysis buffer (Meso Scale Discovery (MSD)). For detection of Akt phosphorylation, lysates were added to the Multi-Spot 96-Well 4-Spot Phospho (Serine 473)/Total Akt plates (MSD), incubated according to the manufacturer's protocol and read in the SECTOR Imager 6000 (MSD). For both cell assays, the percent phosphorylation of Akt was calculated by multiplying the phospho Akt signal by 2, then dividing by the phospho Akt signal added to the total Akt signal and then multiplying by 100. The phosphorylation of Akt data points were fitted using a log (agonist) versus response, variable slope (4 parameters) analysis in GraphPad Prism to generate EC50 curves. The CM % agonism reflect the top value of the data points.
On to B1, for which the EC50 turned out to be 0.62 nM.

In the case of B2, the EC50 was determined as 0.42 nM.

On to B3, for which the EC50 worked out at 2 nM.

For the molecule B4, the EC50 came out at 0.177 nM.

With B5, the EC50 stood at 0.998 nM.

For B6, the EC50 was found to be 33.6 nM.

Staying with this assay, now noted: ratio of EC50s Schwann cells/cardiomyocytes.
For the molecule B1, the “Selectivity SC/CM” value was above 10000.

In the case of B2, the “Selectivity SC/CM” value is reported as above 10000.

Consider B3, for which the “Selectivity SC/CM” value was 60.

For B4, the “Selectivity SC/CM” value came to 24.

Consider B5, for which the “Selectivity SC/CM” value is listed as 7.

Consider B6, for which the “Selectivity SC/CM” value stood at 89.

Staying with this assay, now noted: top value of the Akt phosphorylation data points in cardiomyocytes; wild-type control 100.
Take B1: the “CM % Agonism AVG” value came out at 79.4%.

In the case of B2, the “CM % Agonism AVG” value came out at 82.2%.

Consider B3, for which the “CM % Agonism AVG” value is listed as “Full”.

Regarding B4, the “CM % Agonism AVG” value is “Full”.

With B5, the “CM % Agonism AVG” value is recorded as “Full”.

Consider B6, for which the “CM % Agonism AVG” value is listed as “Full”.

The next assay deals with T2, ErbB3 (Rattus norvegicus, UniProt Q62799).
T2 construct: forming the ErbB2/ErbB4 complex in cardiomyocytes and the ErbB2/ErbB3 complex in Schwann cells; endogenous in cells; host or cells: rat Schwann cells
T2 sequence (Q62799 20-1339): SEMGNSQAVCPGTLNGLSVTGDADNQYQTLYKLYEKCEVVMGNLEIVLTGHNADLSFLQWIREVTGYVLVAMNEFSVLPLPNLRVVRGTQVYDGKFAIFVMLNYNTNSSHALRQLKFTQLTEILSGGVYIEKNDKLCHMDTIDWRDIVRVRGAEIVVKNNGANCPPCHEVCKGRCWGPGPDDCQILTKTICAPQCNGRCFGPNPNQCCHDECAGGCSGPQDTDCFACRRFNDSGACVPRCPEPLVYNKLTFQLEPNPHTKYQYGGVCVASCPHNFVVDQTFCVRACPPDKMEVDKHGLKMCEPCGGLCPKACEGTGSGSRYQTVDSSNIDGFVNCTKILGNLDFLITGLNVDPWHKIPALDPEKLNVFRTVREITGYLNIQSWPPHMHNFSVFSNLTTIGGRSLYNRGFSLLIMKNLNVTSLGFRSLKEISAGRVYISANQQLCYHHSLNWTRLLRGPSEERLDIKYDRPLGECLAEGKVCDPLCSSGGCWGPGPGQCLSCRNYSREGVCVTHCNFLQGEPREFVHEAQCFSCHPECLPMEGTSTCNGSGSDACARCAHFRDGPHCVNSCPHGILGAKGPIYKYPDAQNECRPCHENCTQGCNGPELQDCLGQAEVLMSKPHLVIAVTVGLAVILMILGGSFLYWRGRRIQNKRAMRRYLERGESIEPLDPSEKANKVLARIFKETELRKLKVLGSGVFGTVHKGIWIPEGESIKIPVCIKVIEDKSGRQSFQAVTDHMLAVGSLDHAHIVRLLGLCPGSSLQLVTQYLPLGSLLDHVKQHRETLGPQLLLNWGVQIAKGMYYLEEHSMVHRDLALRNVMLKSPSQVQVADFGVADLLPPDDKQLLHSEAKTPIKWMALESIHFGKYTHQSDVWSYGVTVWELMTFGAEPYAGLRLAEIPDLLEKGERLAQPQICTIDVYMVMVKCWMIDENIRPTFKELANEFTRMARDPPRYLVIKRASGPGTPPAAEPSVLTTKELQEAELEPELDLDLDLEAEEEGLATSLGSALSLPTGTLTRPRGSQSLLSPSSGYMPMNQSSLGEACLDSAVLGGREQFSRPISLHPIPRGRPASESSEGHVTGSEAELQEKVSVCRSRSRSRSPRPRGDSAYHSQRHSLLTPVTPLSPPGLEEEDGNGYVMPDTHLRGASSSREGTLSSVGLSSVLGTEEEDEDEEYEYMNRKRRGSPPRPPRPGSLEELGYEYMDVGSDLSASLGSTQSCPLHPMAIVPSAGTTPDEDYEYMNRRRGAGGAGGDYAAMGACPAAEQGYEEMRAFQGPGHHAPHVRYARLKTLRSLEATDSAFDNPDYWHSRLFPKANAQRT
T2 sequence (P06494 23-1257 partner): as the sequence (P06494 23-1257 partner) above
Briefly: In vitro phosphorylation of Akt in rat Schwann cells. Format: cell-based. The conditions noted are these: Akt (Serine 473) phosphorylation, 15 minutes treatment, read-out: Schwann cells (SC) (ErbB3) Avg EC50. The method, then: as §1, §2, §3
Take B1: the EC50 was above 10000 nM.

Take B2: the EC50 was above 10000 nM.

For the molecule B3, the EC50 stood at 121 nM.

With B4, the EC50 is 4.27 nM.

As to B5, the EC50 turned out to be 6.65 nM.

On to B6, for which the EC50 came out at 3000 nM.

These data come from patent publication US12692294B2, “Engineered NRG-1 variants with improved selectivity toward ErbB4 but not against ErbB3” (Amgen Inc., priority 2021, dated 2026).
